Measured values reported in PubChem BioAssay (NCATS).
The shares of active, inactive and inconclusive entries below differ from those in the screen. Potencies of inconclusive entries are left out as doubtful fits. Calls of active or inactive are those of the source. The call rests on the fitted dose curve; in most records, active means well fitted curve in the direction sought with a large enough effect; inconclusive means small, poorly fitted or top-dose-only effect, or another doubt; inactive means no such curve, though single readings can be large; an effect the other way counts as inactive or inconclusive.

test: qHTS of pediatric cancer cell lines to identify multiple opportunities for drug repurposing: Primary screen for SK-N-MC cells (AID 1347093); settings: SK-N-MC viability, CellTiter-Glo luminescence, 48 h; series mostly up to 46 µM
Procedure, shortened: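 Metabolically active cells were quantified by ATP-dependent luminescence (CellTiter-Glo, 15 min at room temperature) following 48 h treatment. Cells had been plated at 500-1,000 per well and settled for 5 h beforehand.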
Potency means the concentration at half of the fitted maximal effect; tags describe the fitted curve by direction and shape.

Structure (SMILES) | Potency
CCN1CCN(Cc2ccc(-c3cc4c(N[C@H](C)c5ccccc5)ncnc4[nH]3)cc2)CC1 | active: 0.001 µM
NC(=O)c1cccc(N)c1 | inconclusive [cytotoxic, full curve, poor fit]
CN1CCN(CCCN2c3ccccc3Sc3ccc(S(=O)(=O)N(C)C)cc32)CC1 | inconclusive [cytotoxic, partial curve, poor fit]
CCc1cc2c(cc1N1CCC(N3CCOCC3)CC1)C(C)(C)c1[nH]c3cc(C#N)ccc3c1C2=O | inconclusive [cytotoxic, partial curve, poor fit]
Cc1ncc(CSSCc2cnc(C)c(O)c2CO)c(CO)c1O | inactive
C#C[C@]1(O)CC[C@@H]2[C@@H]3CCC4=CC(=O)CC[C@@H]4[C@H]3CC[C@@]21CC | inconclusive [cytotoxic, single point]
COc1cc(/C=C/C(=O)O[C@H]2CC[C@]34C[C@]35CC[C@]3(C)[C@@H]([C@H](C)CCC=C(C)C)CC[C@@]3(C)[C@@H]5CC[C@H]4C2(C)C)ccc1O | inactive
COc1cc(N2CCC(C(N)=O)CC2)ccc1Nc1nc(N)c(Cl)c(Nc2ccccc2S(=O)(=O)C(C)C)n1 | active: 0.132 µM
Cc1cc(N)c2cc(NC(=O)Nc3ccc4nc(C)cc(N)c4c3)ccc2n1 | inactive
CC(=O)[C@]1(O)Cc2c(O)c3c(c(O)c2[C@@H](O[C@H]2C[C@H](N)[C@@H](O)[C@H](C)O2)C1)C(=O)c1ccccc1C3=O | active: 0.118 µM
CCN1CCCC1=O | inactive
CCOC(=O)C1=C(C)NC(C)=C(C(=O)OC)C1c1cccc([N+](=O)[O-])c1 (stereo not given) | inconclusive [cytotoxic, partial curve, poor fit]
C[C@@H]1C(=O)O[C@H]2CC34[C@H]5C[C@@H](C(C)(C)C)C36[C@H](OC(=O)[C@@H]6O)O[C@@]4(C(=O)O5)[C@]21O (stereo not given in full) | inactive
CCOc1nc2cccc(C(=O)O)c2n1Cc1ccc(-c2ccccc2-c2nn[nH]n2)cc1 | inconclusive [cytotoxic, full curve, poor fit]
OCc1ccc(-c2nn(Cc3ccccc3)c3ccccc23)o1 | inconclusive [cytotoxic, full curve, poor fit]
O=C1c2ccccc2S(=O)(=O)N1CCCCN1CCN(c2ncccn2)CC1 | inactive
OCCn1cc(-c2cnc3nnn(Cc4ccc5ncccc5c4)c3n2)cn1 | inactive

test: qHTS of pediatric cancer cell lines to identify multiple opportunities for drug repurposing: Primary screen for BT-37 cells (AID 1347094); settings: BT-37 viability, CellTiter-Glo luminescence, 48 h; series mostly up to 57.3 µM
Procedure, shortened: (§1)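 Following a 5-hour attachment period, cells at 500-1,000/well received compounds and were cultured for 48 hours. CellTiter-Glo was added and luminescence read to estimate viable, metabolically active cells.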

Structure (SMILES) | Potency
CC(C)(CO)[C@@H](O)C(=O)NCCCO | inactive
COC(=O)[C@@H]1[C@H]2C[C@H]3c4[nH]c5ccccc5c4CCN3C[C@@H]2CC[C@@H]1O | inconclusive [cytotoxic, partial curve, poor fit]
Cc1ccc(O)c2ncccc12 | inconclusive [cytotoxic, single point]
CC(=O)Oc1ccc(C2(c3ccc(OC(C)=O)cc3)C(=O)Nc3ccccc32)cc1 | inactive
O=C1c2ccccc2C(=O)C1c1ccccc1 | inactive
CN1CC[C@@H](c2c(O)cc(O)c3c(=O)cc(-c4ccccc4Cl)oc23)[C@@H](O)C1 | active: 0.109 µM
NC[C@H](O)c1ccc(O)c(O)c1 | inactive
NC(=O)c1cccc(N)c1 | inactive
CN1CCN(CCCN2c3ccccc3Sc3ccc(S(=O)(=O)N(C)C)cc32)CC1 | inconclusive [cytotoxic, partial curve]
CC(=O)[C@]1(O)Cc2c(O)c3c(c(O)c2[C@@H](O[C@H]2C[C@H](N)[C@@H](O)[C@H](C)O2)C1)C(=O)c1ccccc1C3=O | active: 0.193 µM
CC(C(C)N1CC(=O)NC(=O)C1)N1CC(=O)NC(=O)C1 (stereo not given) | inconclusive [cytotoxic, full curve]
C[C@@H]1C(=O)O[C@H]2CC34[C@H]5C[C@@H](C(C)(C)C)C36[C@H](OC(=O)[C@@H]6O)O[C@@]4(C(=O)O5)[C@]21O (stereo not given in full) | inconclusive [cytotoxic, partial curve]
OCc1ccc(-c2nn(Cc3ccccc3)c3ccccc23)o1 | inactive
Clc1ccc2c(c1)C(N1CCNCC1)=Nc1ccccc1O2 | inactive
NC(=O)c1ncn([C@@H]2O[C@H](CO)[C@@H](O)[C@H]2O)c1O | inactive
O=C1c2ccccc2S(=O)(=O)N1CCCCN1CCN(c2ncccn2)CC1 | inactive
OCCn1cc(-c2cnc3nnn(Cc4ccc5ncccc5c4)c3n2)cn1 | inconclusive [cytotoxic, partial curve, poor fit]

test: qHTS of pediatric cancer cell lines to identify multiple opportunities for drug repurposing: Primary screen for NB-EBc1 cells (AID 1347095); settings: NB-EBc1 neuroblastoma viability, CellTiter-Glo luminescence, 48 h; series mostly up to 46 µM
Procedure, shortened: as §1

Structure (SMILES) | Potency
O=C(Nc1ccc(Oc2ccnc3[nH]ccc23)c(F)c1)c1cccn(-c2ccc(F)cc2)c1=O | inconclusive [cytotoxic, partial curve]
C[C@H](CCC(=O)O)[C@H]1CCC2C3C[C@H](O)[C@@H]4C[C@H](O)CC[C@]4(C)C3CC[C@@]21C (stereo not given in full) | inactive
C[C@]12C=CC(=O)N[C@@H]1CC[C@H]1[C@H]3CC[C@@H](C(=O)Nc4cc(C(F)(F)F)ccc4C(F)(F)F)[C@@]3(C)CC[C@@H]12 | inconclusive [cytotoxic, partial curve, poor fit]
Cc1ccc(O)c2ncccc12 | inconclusive [cytotoxic, single point]
CN1CC[C@@H](c2c(O)cc(O)c3c(=O)cc(-c4ccccc4Cl)oc23)[C@@H](O)C1 | active: 0.0743 µM
CO[C@@H]1[C@@H](O)[C@H](O)[C@@H](n2c3c(Cl)cccc3c3c4c(c5c6cccc(Cl)c6[nH]c5c32)C(=O)NC4=O)O[C@@H]1CO | active: 0.0935 µM
CCc1cc2c(cc1N1CCC(N3CCOCC3)CC1)C(C)(C)c1[nH]c3cc(C#N)ccc3c1C2=O | inconclusive [cytotoxic, partial curve, poor fit]
Cc1ncc(CSSCc2cnc(C)c(O)c2CO)c(CO)c1O | inactive
CC(=O)[C@]1(O)Cc2c(O)c3c(c(O)c2[C@@H](O[C@H]2C[C@H](N)[C@@H](O)[C@H](C)O2)C1)C(=O)c1ccccc1C3=O | active: 0.0372 µM
CC(C(C)N1CC(=O)NC(=O)C1)N1CC(=O)NC(=O)C1 (stereo not given) | active: 0.264 µM
Clc1ccc2c(c1)C(N1CCNCC1)=Nc1ccccc1O2 | inconclusive [cytotoxic, partial curve, poor fit]
